Measured values published in patent US8716473B2, “Substituted benzotriazines and quinoxalines as inhibitors of P7OS6 kinase” (Sentinel Oncology Limited, priority 2009, dated 2014).
Structures can show the parent of a compound that is named as a salt. Some results were stated once for a whole list of compounds, not compound by compound.

Columns and labels:
Type in all cases: biochemical
Conditions in all cases: compared with inhibitory activity against p70S6
Akt2 (PKBβ (h)) = Akt2 (PKBβ (h)) (Homo sapiens, UniProt P31751); assay: Selectivity for p70S6 kinase versus Akt2 kinase (radiometric kinase assay)
Sequence of Akt2 (PKBβ (h)) (P31751 whole entry): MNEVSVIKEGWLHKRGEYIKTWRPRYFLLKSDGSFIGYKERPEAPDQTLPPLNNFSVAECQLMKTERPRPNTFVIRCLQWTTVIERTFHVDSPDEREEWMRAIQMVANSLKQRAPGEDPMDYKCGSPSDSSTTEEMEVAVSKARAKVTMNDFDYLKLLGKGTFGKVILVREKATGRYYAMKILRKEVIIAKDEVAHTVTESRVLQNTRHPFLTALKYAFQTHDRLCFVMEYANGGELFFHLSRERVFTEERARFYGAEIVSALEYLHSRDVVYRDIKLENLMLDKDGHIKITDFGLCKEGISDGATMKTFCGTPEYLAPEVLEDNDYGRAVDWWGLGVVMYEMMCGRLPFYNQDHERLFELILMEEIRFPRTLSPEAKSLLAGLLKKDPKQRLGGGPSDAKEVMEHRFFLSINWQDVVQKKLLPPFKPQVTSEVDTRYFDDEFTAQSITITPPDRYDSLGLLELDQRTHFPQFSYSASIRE

Aurora-A (h) = molecular target: T1, Aurora-A (h) (Homo sapiens, UniProt O14965); assay: Selectivity for p70S6 kinase versus Aurora A (radiometric kinase assay)
T1 sequence (O14965 1-403): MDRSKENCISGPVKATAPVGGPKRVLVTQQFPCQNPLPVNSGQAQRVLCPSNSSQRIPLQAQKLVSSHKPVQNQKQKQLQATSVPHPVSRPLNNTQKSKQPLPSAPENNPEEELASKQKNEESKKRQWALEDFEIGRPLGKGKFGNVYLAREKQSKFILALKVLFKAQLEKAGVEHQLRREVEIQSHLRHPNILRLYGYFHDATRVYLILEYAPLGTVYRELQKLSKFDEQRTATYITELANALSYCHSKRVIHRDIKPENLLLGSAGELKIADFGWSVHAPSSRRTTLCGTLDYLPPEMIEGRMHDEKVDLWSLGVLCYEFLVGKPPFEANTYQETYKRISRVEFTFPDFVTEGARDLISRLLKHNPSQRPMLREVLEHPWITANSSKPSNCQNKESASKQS

Aurora B kinase = molecular target: T2, Aurora B kinase (Homo sapiens, UniProt Q96GD4); assay: Selectivity for p70S6 kinase versus Aurora B (assays carried out at Millipore UK Ltd)
T2 construct: purchased Millipore UK Ltd
T2 sequence (Q96GD4 whole entry): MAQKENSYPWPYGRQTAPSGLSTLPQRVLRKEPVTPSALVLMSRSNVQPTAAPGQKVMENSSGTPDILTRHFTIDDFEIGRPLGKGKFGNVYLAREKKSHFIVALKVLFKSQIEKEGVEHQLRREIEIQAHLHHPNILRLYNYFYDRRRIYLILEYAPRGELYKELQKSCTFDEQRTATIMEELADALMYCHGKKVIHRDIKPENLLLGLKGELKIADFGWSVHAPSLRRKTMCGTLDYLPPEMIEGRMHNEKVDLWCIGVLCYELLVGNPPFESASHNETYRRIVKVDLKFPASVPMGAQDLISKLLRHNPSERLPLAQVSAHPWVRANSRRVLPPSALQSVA

## Clc1ccc(CNc2cnc3cc(-c4cn[nH]c4)ccc3n2)cc1 [Example 8, (4-Chloro-benzyl)-[6-(1H-pyrazol-4-yl)-quinoxalin-2-yl]-amine]
Akt2 (PKBβ (h))
  fold selectivity for p70S6 kinase over Akt2 kinase: greater than 20 fold
Aurora-A (h)
  fold selectivity for p70S6 kinase over Aurora A: greater than 20 fold
Aurora B kinase
  fold selectivity for p70S6 kinase over Aurora B: greater than 5 fold

## CN(Cc1cccc(F)c1)c1cnc2cc(-c3cn[nH]c3)ccc2n1 [Example 28, (3-Fluoro-benzyl)-methyl-[6-(1H-pyrazol-4-yl)-quinoxalin-2-yl]-amine]
Akt2 (PKBβ (h))
  fold selectivity for p70S6 kinase over Akt2 kinase: greater than 100 fold
Aurora-A (h)
  fold selectivity for p70S6 kinase over Aurora A: greater than 20 fold
Aurora B kinase
  fold selectivity for p70S6 kinase over Aurora B: greater than 20 fold

## Fc1cccc(CNc2cnc3cc(-c4cn[nH]c4)ccc3n2)c1 [Example 12, (3-Fluoro-benzyl)-[6-(1H-pyrazol-4-yl)-quinoxalin-2-yl]-amine hydrochloride]
Akt2 (PKBβ (h))
  fold selectivity for p70S6 kinase over Akt2 kinase: greater than 100 fold
Aurora-A (h)
  fold selectivity for p70S6 kinase over Aurora A: greater than 20 fold
Aurora B kinase
  fold selectivity for p70S6 kinase over Aurora B: greater than 20 fold

## CN1CCN(c2cccc(CN(C)c3cnc4cc(-c5cn[nH]c5)ccc4n3)c2)CC1 [Example 48, Methyl-[3-(4-methyl-piperazin-1-yl)-benzyl]-[6-(1H-pyrazol-4-yl)-quinoxalin-2-yl]-amine]
Akt2 (PKBβ (h))
  fold selectivity for p70S6 kinase over Akt2 kinase: greater than 100 fold
Aurora-A (h)
  fold selectivity for p70S6 kinase over Aurora A: greater than 20 fold
Aurora B kinase
  fold selectivity for p70S6 kinase over Aurora B: greater than 10 fold

## Fc1ccc(CNc2cnc3cc(-c4cn[nH]c4)ccc3n2)cc1F [Example 32, (3,4-Difluoro-benzyl)-[6-(1H-pyrazol-4-yl)-quinoxalin-2-yl]-amine]
Akt2 (PKBβ (h))
  fold selectivity for p70S6 kinase over Akt2 kinase: greater than 100 fold
Aurora-A (h)
  fold selectivity for p70S6 kinase over Aurora A: greater than 20 fold
Aurora B kinase
  fold selectivity for p70S6 kinase over Aurora B: greater than 20 fold

## COc1cccc([C@@H](C)Nc2cnc3cc(-c4cn[nH]c4)ccc3n2)c1 [Example 50, [(R)-1-(3-Methoxy-phenyl)-ethyl]-[6-(1H-pyrazol-4-yl)-quinoxalin-2-yl]-amine hydrochloride]
Akt2 (PKBβ (h))
  fold selectivity for p70S6 kinase over Akt2 kinase: greater than 100 fold
Aurora-A (h)
  fold selectivity for p70S6 kinase over Aurora A: greater than 20 fold
Aurora B kinase
  fold selectivity for p70S6 kinase over Aurora B: greater than 20 fold

## Cc1ccc(CNc2cnc3cc(-c4cn[nH]c4)ccc3n2)cc1 [Example 44, (4-Methyl-benzyl)-[6-(1H-pyrazol-4-yl)-quinoxalin-2-yl]-amine]
Akt2 (PKBβ (h))
  fold selectivity for p70S6 kinase over Akt2 kinase: greater than 100 fold
Aurora-A (h)
  fold selectivity for p70S6 kinase over Aurora A: greater than 20 fold
Aurora B kinase
  fold selectivity for p70S6 kinase over Aurora B: greater than 5 fold

## CN(Cc1ccccc1)c1nc2ccc(-c3cn[nH]c3)cc2[n+]([O-])n1 [Example 34, Benzyl-methyl-[1-oxy-7-(1H-pyrazol-4-yl)-benzo[1,2,4]triazin-3-yl]-amine]
Akt2 (PKBβ (h))
  fold selectivity for p70S6 kinase over Akt2 kinase: greater than 100 fold
Aurora-A (h)
  fold selectivity for p70S6 kinase over Aurora A: greater than 2 fold
Aurora B kinase
  fold selectivity for p70S6 kinase over Aurora B: greater than 10 fold

## c1ccc(CCNc2cnc3cc(-c4cn[nH]c4)ccc3n2)cc1 [Example 25, Phenethyl-[6-(1H-pyrazol-4-yl)-quinoxalin-2-yl]-amine hydrochloride]
Akt2 (PKBβ (h))
  fold selectivity for p70S6 kinase over Akt2 kinase: greater than 100 fold
Aurora-A (h)
  fold selectivity for p70S6 kinase over Aurora A: greater than 20 fold
Aurora B kinase
  fold selectivity for p70S6 kinase over Aurora B: greater than 20 fold

## c1ccc(CNc2cnc3cc(-c4cn[nH]c4)ccc3n2)cc1 [Example 1, Benzyl-[6-(1H-pyrazol-4-yl)-quinoxalin-2-yl]-amine]
Akt2 (PKBβ (h))
  fold selectivity for p70S6 kinase over Akt2 kinase: greater than 20 fold
Aurora-A (h)
  fold selectivity for p70S6 kinase over Aurora A: greater than 20 fold
Aurora B kinase
  fold selectivity for p70S6 kinase over Aurora B: greater than 20 fold

## CN(Cc1ccccc1)c1cnc2cc(-c3cncnc3)ccc2n1 [Example 43, Benzyl-methyl-(6-pyrimidin-5-yl-quinoxalin-2-yl)-amine]
Akt2 (PKBβ (h))
  fold selectivity for p70S6 kinase over Akt2 kinase: greater than 100 fold
Aurora-A (h)
  fold selectivity for p70S6 kinase over Aurora A: greater than 20 fold
Aurora B kinase
  fold selectivity for p70S6 kinase over Aurora B: greater than 20 fold

## C[C@H](Nc1cnc2cc(-c3cn[nH]c3)ccc2n1)c1cccc(F)c1 [Example 59, [(S)-1-(3-Fluoro-phenyl)-ethyl]-[6-(1H-pyrazol-4-yl)-quinoxalin-2-yl]-amine hydrochloride]
Akt2 (PKBβ (h))
  fold selectivity for p70S6 kinase over Akt2 kinase: greater than 20 fold
Aurora-A (h)
  fold selectivity for p70S6 kinase over Aurora A: greater than 10 fold
Aurora B kinase
  fold selectivity for p70S6 kinase over Aurora B: greater than 5 fold

## CCN(Cc1ccccc1)c1cnc2cc(-c3cn[nH]c3)ccc2n1 [Example 26, Benzyl-ethyl-[6-(1H-pyrazol-4-yl)-quinoxalin-2-yl]-amine]
Akt2 (PKBβ (h))
  fold selectivity for p70S6 kinase over Akt2 kinase: greater than 100 fold
Aurora-A (h)
  fold selectivity for p70S6 kinase over Aurora A: greater than 2 fold
Aurora B kinase
  fold selectivity for p70S6 kinase over Aurora B: greater than 20 fold

## C[C@@H](Nc1cnc2cc(-c3cn[nH]c3)ccc2n1)c1cccc(Cl)c1 [Example 55, [(R)-1-(3-Chloro-phenyl)-ethyl]-[6-(1H-pyrazol-4-yl)-quinoxalin-2-yl]-amine hydrochloride]
Akt2 (PKBβ (h))
  fold selectivity for p70S6 kinase over Akt2 kinase: greater than 100 fold
Aurora-A (h)
  fold selectivity for p70S6 kinase over Aurora A: greater than 20 fold
Aurora B kinase
  fold selectivity for p70S6 kinase over Aurora B: greater than 20 fold

## OCCN(Cc1ccccc1)c1cnc2cc(-c3cn[nH]c3)ccc2n1 [Example 3, 2-{Benzyl-[6-(1H-pyrazol-4-yl)-quinoxalin-2-yl]-amino}-ethanol]
Akt2 (PKBβ (h))
  fold selectivity for p70S6 kinase over Akt2 kinase: greater than 20 fold
Aurora-A (h)
  fold selectivity for p70S6 kinase over Aurora A: greater than 20 fold
Aurora B kinase
  fold selectivity for p70S6 kinase over Aurora B: greater than 20 fold

## CN(Cc1ccc(F)cc1)c1cnc2cc(-c3cn[nH]c3)ccc2n1 [Example 21, (4-Fluoro-benzyl)-methyl-[6-(1H-pyrazol-4-yl)-quinoxalin-2-yl]-amine]
Akt2 (PKBβ (h))
  fold selectivity for p70S6 kinase over Akt2 kinase: greater than 100 fold
Aurora-A (h)
  fold selectivity for p70S6 kinase over Aurora A: greater than 10 fold
Aurora B kinase
  fold selectivity for p70S6 kinase over Aurora B: greater than 5 fold

## Clc1ccccc1CNc1cnc2cc(-c3cn[nH]c3)ccc2n1 [Example 10, (2-Chloro-benzyl)-[6-(1H-pyrazol-4-yl)-quinoxalin-2-yl]-amine]
Akt2 (PKBβ (h))
  fold selectivity for p70S6 kinase over Akt2 kinase: greater than 100 fold
Aurora-A (h)
  fold selectivity for p70S6 kinase over Aurora A: greater than 2 fold
Aurora B kinase
  fold selectivity for p70S6 kinase over Aurora B: greater than 2 fold

## COc1cccc([C@@H](C)N(C)c2cnc3cc(-c4cn[nH]c4)ccc3n2)c1 [Example 53, [(R)-1-(3-Methoxy-phenyl)-ethyl]-methyl-[6-(1H-pyrazol-4-yl)-quinoxalin-2-yl]-amine hydrochloride]
Akt2 (PKBβ (h))
  fold selectivity for p70S6 kinase over Akt2 kinase: greater than 100 fold
Aurora-A (h)
  fold selectivity for p70S6 kinase over Aurora A: greater than 20 fold
Aurora B kinase
  fold selectivity for p70S6 kinase over Aurora B: greater than 10 fold

## c1cc(CNc2cnc3cc(-c4cn[nH]c4)ccc3n2)cs1 [Example 38, [6-(1H-Pyrazol-4-yl)-quinoxalin-2-yl]-thiophen-3-ylmethyl-amine]
Akt2 (PKBβ (h))
  fold selectivity for p70S6 kinase over Akt2 kinase: greater than 100 fold
Aurora-A (h)
  fold selectivity for p70S6 kinase over Aurora A: greater than 20 fold
Aurora B kinase
  fold selectivity for p70S6 kinase over Aurora B: greater than 10 fold

## Cc1cccc(CNc2cnc3cc(-c4cn[nH]c4)ccc3n2)c1 [Example 41, (3-Methyl-benzyl)-[6-(1H-pyrazol-4-yl)-quinoxalin-2-yl]-amine]
Akt2 (PKBβ (h))
  fold selectivity for p70S6 kinase over Akt2 kinase: greater than 100 fold
Aurora-A (h)
  fold selectivity for p70S6 kinase over Aurora A: greater than 20 fold
Aurora B kinase
  fold selectivity for p70S6 kinase over Aurora B: greater than 10 fold

## COc1ccc(CNc2cnc3cc(-c4cn[nH]c4)ccc3n2)cc1 [Example 17, (4-Methoxy-benzyl)-[6-(1H-pyrazol-4-yl)-quinoxalin-2-yl]-amine]
Akt2 (PKBβ (h))
  fold selectivity for p70S6 kinase over Akt2 kinase: greater than 100 fold
Aurora-A (h)
  fold selectivity for p70S6 kinase over Aurora A: greater than 10 fold
Aurora B kinase
  fold selectivity for p70S6 kinase over Aurora B: greater than 2 fold

## Fc1ccc(CNc2cnc3cc(-c4cn[nH]c4)ccc3n2)cc1 [Example 11, (4-Fluoro-benzyl)-[6-(1H-pyrazol-4-yl)-quinoxalin-2-yl]-amine hydrochloride]
Akt2 (PKBβ (h))
  fold selectivity for p70S6 kinase over Akt2 kinase: greater than 100 fold
Aurora-A (h)
  fold selectivity for p70S6 kinase over Aurora A: greater than 20 fold
Aurora B kinase
  fold selectivity for p70S6 kinase over Aurora B: greater than 20 fold
